The record followed here is article PMC4336329 (PLoS ONE, 2015).

The structures appear in SMILES notation. The campaign covered roughly 310,000 compounds. About 2,200 (0.71%) showed an effect of 50% or more. Effects have a minus sign here. The list shows a part of the results.

human ether-à-go-go-related gene (hERG) potassium channel, sequence (Q12809 whole entry, looked up): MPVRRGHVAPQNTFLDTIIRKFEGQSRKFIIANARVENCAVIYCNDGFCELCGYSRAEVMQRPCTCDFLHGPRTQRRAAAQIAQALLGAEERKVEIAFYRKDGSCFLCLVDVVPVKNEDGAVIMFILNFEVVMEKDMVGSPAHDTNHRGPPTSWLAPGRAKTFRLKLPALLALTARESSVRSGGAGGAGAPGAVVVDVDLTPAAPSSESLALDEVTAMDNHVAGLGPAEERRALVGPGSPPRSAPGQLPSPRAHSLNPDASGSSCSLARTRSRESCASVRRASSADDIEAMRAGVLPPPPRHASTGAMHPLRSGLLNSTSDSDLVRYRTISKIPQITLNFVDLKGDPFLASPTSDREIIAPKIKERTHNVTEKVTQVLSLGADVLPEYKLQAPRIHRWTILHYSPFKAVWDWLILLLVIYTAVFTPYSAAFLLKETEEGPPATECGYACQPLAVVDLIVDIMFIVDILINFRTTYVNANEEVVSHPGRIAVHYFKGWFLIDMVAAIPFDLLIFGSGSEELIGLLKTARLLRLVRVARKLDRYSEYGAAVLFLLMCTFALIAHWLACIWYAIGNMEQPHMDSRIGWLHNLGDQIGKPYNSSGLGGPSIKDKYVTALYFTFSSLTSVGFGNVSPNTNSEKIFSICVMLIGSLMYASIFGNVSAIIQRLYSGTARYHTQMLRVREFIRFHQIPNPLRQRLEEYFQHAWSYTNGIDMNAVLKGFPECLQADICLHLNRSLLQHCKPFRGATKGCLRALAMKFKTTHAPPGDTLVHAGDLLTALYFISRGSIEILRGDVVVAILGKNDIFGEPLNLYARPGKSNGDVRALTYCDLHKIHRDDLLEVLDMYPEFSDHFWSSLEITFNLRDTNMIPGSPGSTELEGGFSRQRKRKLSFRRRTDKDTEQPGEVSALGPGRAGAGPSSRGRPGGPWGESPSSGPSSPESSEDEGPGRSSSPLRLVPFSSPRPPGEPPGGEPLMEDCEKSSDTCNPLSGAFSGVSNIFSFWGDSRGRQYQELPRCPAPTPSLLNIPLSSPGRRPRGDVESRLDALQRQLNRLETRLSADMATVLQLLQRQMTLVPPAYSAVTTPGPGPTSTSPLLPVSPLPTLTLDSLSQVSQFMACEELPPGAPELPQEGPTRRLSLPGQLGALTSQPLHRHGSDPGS

This assay concerns the target human ether-à-go-go-related gene (hERG) potassium channel (human, UniProt Q12809). The assay is described as follows: primary screen, population patch clamp on CHO cells stably expressing hERG.
On to `O=C(O)c1ccc(Sc2nnc3ccccn23)c([N+](=O)[O-])c1`, for which the “hERG current change (%, negative = inhibition) at 1uM” value was found to be 10.9%. On to `O=C(Cc1ccc(Br)cc1)N(Cc1ccccc1)c1ccccn1`, for which the “hERG current change (%, negative = inhibition) at 1uM” value is 4.16%. As to `FC(F)Oc1ccc(/C=N/c2c(-c3ccc(OC(F)F)cc3)nc3n2CCS3)cc1`, the “hERG current change (%, negative = inhibition) at 1uM” value is 20.4%.

On to `O=S(=O)(c1ccc(SCCO)nc1)N1CCCC1`, for which the “hERG current change (%, negative = inhibition) at 1uM” value worked out at 8.34%. With `O=C(NC1CCCCCC1)c1ccc(S(=O)(=O)NCc2ccco2)cc1`, the “hERG current change (%, negative = inhibition) at 1uM” value amounted to 4.82%. In the case of `COC(=O)/C=C/c1ccsc1NC(C)=O` it was 11%; in that of `Cc1ccsc1C(=O)NNC(=O)c1cccc(S(=O)(=O)N2CCCC2)c1`, 7.39%. For `O=[N+]([O-])c1cc(S(=O)(=O)N2CCCC2)ccc1N/N=C/c1ccccn1`, the “hERG current change (%, negative = inhibition) at 1uM” value was 25.7%. Consider `O=C(NC1CCCC1)c1cc(-c2ccccc2O)on1`, for which the “hERG current change (%, negative = inhibition) at 1uM” value was determined as 8.71%. In the case of `CCNC(=S)Nc1sc2c(c1C#N)CCC(C)C2` (stereo not drawn), the “hERG current change (%, negative = inhibition) at 1uM” value was determined as 6.1%. As to `COc1ccc(OC)c(/C=N/NC(=O)c2cc3c(OC)c(OC)ccc3[nH]2)c1`, the “hERG current change (%, negative = inhibition) at 1uM” value worked out at 2.67%. As for `CN(C)S(=O)(=O)c1cccc(NC(=O)COC(=O)CCc2nc3ccccc3s2)c1`, the “hERG current change (%, negative = inhibition) at 1uM” value was 0.74%.

In the case of `COc1ccc(Nc2nc(-c3cccs3)nc3ccccc23)cc1`, the “hERG current change (%, negative = inhibition) at 1uM” value was 4.05%. In the case of `CCCc1cc2c(=O)c(-c3ccc4c(c3)OCCO4)coc2cc1OC(=O)c1ccco1` it was 6.79%; in that of `CC1CC(=O)N(CC(=O)Nc2ccc3c(c2)OCCO3)c2ccccc2S1` (stereo not drawn), -4.25%; in that of `COC(=O)[C@@]1(Cc2ccccc2)[C@@H]2C(=CC(=O)[C@H]2CC(=O)C(=O)N(C)C)CN1C(=O)c1ccccc1`, 0.699%. With `COCCNC(=O)C(NC(=O)C1CCCCC1)C12CC3CC(CC(C3)C1)C2` (stereo not drawn) the figure was 8.5%; with `CC(=O)O[C@@]12CO[C@@H]1C[C@H](O)[C@@]1(C)C(=O)[C@H](O)C3=C(C)[C@@H](O)C[C@@](O)([C@@H](OC(=O)c4ccccc4)C12)C3(C)C` (stereo partly drawn), 9.56%; with `CC(C)C[C@H](NC(=O)OC(C)(C)C)c1nnc(SCc2cccc(F)c2)o1`, 0.227%. In the case of `Cc1cc(=O)[nH]c(Nc2cccc(Cl)c2C)n1`, the “hERG current change (%, negative = inhibition) at 1uM” value is 12%. In the case of `CCN1C(=O)c2ccccc2S(=O)(=O)c2ccc(C(=O)NCc3cccnc3)cc21` it was 9.86%; in that of `COc1ccccc1-c1nnc2n1N=C(C)CS2`, 6.03%; in that of `COc1ccc(N2CCN(C(=O)COC(=O)c3oc4ccc(OC)cc4c3C)CC2)cc1`, 6.14%.

Take `CC(C)(C)NC(=O)NC(=O)COC(=O)CCC1CCCCC1`: the “hERG current change (%, negative = inhibition) at 1uM” value is recorded as 12.8%. In the case of `Cc1cc2cc(C(c3nnnn3Cc3ccco3)N3CCc4ccccc4C3)c(=O)[nH]c2cc1C` (stereo not drawn), the “hERG current change (%, negative = inhibition) at 1uM” value is -0.127%. In the case of `CCn1c(CN2CCN(C(=O)c3ccco3)CC2)nc2c1c(=O)n(C)c(=O)n2C`, the “hERG current change (%, negative = inhibition) at 1uM” value is reported as 1.44%. In the case of `O=C(Nc1ccccn1)c1ccc(S(=O)(=O)N2CCCCCC2)cc1` it was 5.88%; in that of `CCOc1ccc(NS(=O)(=O)c2ccc3c(c2)N(C(C)=O)CCS3)cc1`, 6.56%; in that of `O=C(Nc1ccc2c(c1)OCCO2)c1ccc(S(=O)(=O)N2CCCCC2)cc1`, 8.18%. In the case of `O=C(NCc1ccc(Cl)cc1)c1cnn2ccccc12`, the “hERG current change (%, negative = inhibition) at 1uM” value is listed as 6.45%. For `O=C(Nc1cccnc1)c1ccccc1-c1ccccc1`, the “hERG current change (%, negative = inhibition) at 1uM” value was determined as 13.4%.

In the case of `CCCC(C)NCC(=O)Nc1ccccc1-c1ccccc1.O=C(O)C(=O)O` (stereo not drawn), the “hERG current change (%, negative = inhibition) at 1uM” value is -2.49%. With `NC(=O)NOCc1ccc(Cl)cc1Cl`, the “hERG current change (%, negative = inhibition) at 1uM” value came to 11.4%.

In the case of `CCC(CC)c1nnc(NC(=O)Cc2cccs2)s1`, the “hERG current change (%, negative = inhibition) at 1uM” value turned out to be 11.6%.

Take `Cc1c(C(=O)Nc2ccccc2)sc2nc3n(c(=O)c12)CCCCC3`: the “hERG current change (%, negative = inhibition) at 1uM” value was determined as 7.59%.

In the case of `COCCCn1c(C(=O)NCCN2CCOCC2)cc2c(=O)n3cccc(C)c3nc21`, the “hERG current change (%, negative = inhibition) at 1uM” value was 6.14%. As for `O=C(Nc1nnc(-c2ccccc2)s1)c1ccc(F)cc1`, the “hERG current change (%, negative = inhibition) at 1uM” value is recorded as 7.26%.

Turning to `O=[N+]([O-])c1cc([N+](=O)[O-])c(Oc2c(F)cc(F)cc2F)cc1NN1CCCCC1`, the “hERG current change (%, negative = inhibition) at 1uM” value was found to be 11.1%.

Regarding `CCOC(=O)C1CCN(S(=O)(=O)c2cn(C)cn2)CC1`, the “hERG current change (%, negative = inhibition) at 1uM” value amounted to 16.5%. With `Cc1ccc(C(c2nnnn2Cc2ccccc2)N2CCN(Cc3ccccc3)CC2)cc1` (stereo not drawn), the “hERG current change (%, negative = inhibition) at 1uM” value is -4.31%.

Take `O=C(CN(Cc1ccc(F)cc1)C(=O)CCC(=O)Nc1nccs1)NCc1ccc(F)cc1`: the “hERG current change (%, negative = inhibition) at 1uM” value is listed as 3.16%.

Take `Cc1ccc(NC(=S)NC2CCSc3ccccc32)cc1C` (stereo not drawn): the “hERG current change (%, negative = inhibition) at 1uM” value came to 15.3%. With `O=C(NC1(C(=O)NC2CCCCC2)CCCCC1)c1ccccn1` the figure was 5.52%.

For the compound `COc1cc(/C=C/C(=O)c2ccc(O)cc2)ccc1OCC#N`, the “hERG current change (%, negative = inhibition) at 1uM” value was 3.72%. With `Cn1cc(Cl)c(-c2n[nH]c(=S)n2-c2ccccc2)n1` the figure was 14%.
